Read counts are not given, so values of variants with three or more changes are uncertain.
B1: CPEB3 Ribozyme (parent)
chain: UAACAGGGGGCCACAGCAGAAGCGUUCACGUCGCAGCCCCUGUCAGAUUCUGGUGAAUCUGCGAAUUCUGCUGUAUAUCUC

Variants of: B1
Assay: self-cleavage, relative activity (ratio to wild type); higher = more cleavage; in vitro, sequencing
Outline: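 Barcoded CPEB3 ribozyme mutants, produced by rounds of error-prone PCR, self-cleaved while being transcribed with T7 RNA polymerase for 5 hours at 37°C and during a subsequent 15 min DNase I step before EDTA was added. Sequencing of template-switched cDNA on Illumina gave cleaved and total reads, and DNA sequencing assigned barcodes to variants. Each variant's relative activity is its cleaved/total read fraction divided by the unmutated ribozyme's fraction, averaged across three batches. A variant needed a minimum of 5 reads.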

Variant | self-cleavage
A18U U25C U41A U54C | 0.2
A18U U25C U41C U51C A56G | 0.39
A18U U25C U43A C59U A64C | 0.12
A18U U25C U49C U69A | 0.14
A18U U25C U58C A77U | 0.2
A18U U25C U67C U69C | 0.12
A18U U26A A45G U66C U80A | 0.11
A18U U26A A57G U60C U66C U72C | 0.16
A18U U26C A28G U43C | 0.13
A18U U26C C37A U60C | 0.16
A18U U26C G33A U54C G70C U78C | 0.08
A18U U26C G63C U78G | 0.16
A18U U26C U41A U49A U72A | 0.28
A18U U26C U41C U60C U69A U80A | 0.24
A18U U26C U41C U69G | 0.31
A18U U26C U41C U78A | 0.11
A18U U26G A35G A77U | 0.76
A18U U31C A45G U54C | 0.13
A18U U31C A47G A64U C81A | 0.1
A18U U31C A77G | 0.18
A18U U31C C32A | 0.19
A18U U31C U51C C62U | 0.14
A18U U31C U72A | 0.17
A18U U31G A57U A64G | 0.13

Variant | self-cleavage
A18U U41A A75U | 0.18
A18U U41A U51A U54C | 0.15
A18U U41A U78C | 0.11
A18U U41C A56G A57G U60A | 0.49
A18U U41C U51A | 0.26
A18U U41G U54C | 0.2
A18U U41G U60C A75G | 0.06
A18U U43A G52A C71U | 0.21
A18U U43A U48C U76C A77G | 0.16
A18U U43C G61A | 0.12
A18U U43C G61U U67C U69A | 0.16
A18U U43C U67A U72A | 0.12
A18U U43G U51A U54C U60C A64G | 0.08
A18U U48C G63U U66C C68A U72C | 0.15
A18U U48C U49C U72A | 0.07
A18U U49A A56G C62U A75G | 0.11
A18U U49A U60C C79U | 0.25
A18U U49A U72G | 0.21
A18U U49C U51A U69A | 0.85
A18U U49C U74A | 0.23
A18U U51A A57G | 0.26
A18U U51A U54C | 0.53
A18U U51A U76C | 0.6
A18U U51C A75U U78C | 0.41

Variant | self-cleavage
A18U U51C U54A A64G U67A U76C | 0.21
A18U U51C U72C U80G | 0.17
A18U U54A A57C | 0.21
A18U U54C U72C U80C | 0.36
A18U U58A A64G U72A | 0.12
A18U U58C U69C U76C | 0.2
A18U U67C A77U | 0.13
A18U U72A U74A | 0.13
G19A A20C A21G U41C U51C C62U | 0.19
G19A A21G U26C U80C | 0.38
G19A A21G U49C U69C | 0.06
G19A A21G U60A A65G | 0.11
G19A A28G U60C | 0.09
G19A A28U A57G C71A U80C | 0.09
G19A A35G U41C | 0.16
G19A C27A U31C U41C U43C | 0.17
G19A C32U C34U A57G A75U | 0.08
G19A C44A A75U | 0.08
G19A G24A U41C U72A | 0.12
G19A G42U U51A U54C U60A U72C | 0.06
G19A U25G U43C U78C | 0.04
G19A U26C C27G U48C | 0.2
G19A U26C U51C | 0.17
G19A U31A A56U U58C | 0.09

Variant | self-cleavage
G19A U31G U49A U51A U67C | 0.06
G19A U41A U58C U60C U76A | 0.08
G19A U41C U49A | 0.08
G19A U49C U54C | 0.16
G19A U51A U58A U66A | 0.37
G19A U67G U80A | 0.13
G19C A20G C29U | 0.34
G19C A21G A35U U54C | 0.19
G19C A21G G30U A64G G70A | 0.11
G19C A21U A56U U76A U78C | 0.15
G19C A21U U25C A35G A56G A57G | 0.03
G19C A28C C39A A57G A64G | 0.14
G19C A28G U43A A57G | 0.23
G19C A35G A77G | 0.29
G19C G30U U51A A64G U80C | 0.05
G19C G52U U69C U72C | 0.13
G19C U31C C40A G73A | 0.11
G19C U43C A57G U69C | 0.12
G19C U51C A77G C79U | 0.33
G19C U66C A75G U76C | 0.13
G19U A20C A77G | 0.22
G19U A20G U51C | 0.35
G19U A21G A45C A56G | 0.18
G19U A21G A57G U67C | 0.1

Variant | self-cleavage
G19U A21G U54G G55U U76A | 0.11
G19U A21U A28G U54A U67C U80C | 0.06
G19U A28G A35U U74C | 0.11
G19U A47G A57U U72G | 0.12
G19U A47G G63U U74C | 0.33
G19U A47U U54C A77G | 0.04
G19U C29U G63U A64G U72A | 0.09
G19U C37U U60C A65G U67C | 0.08
G19U G22U U26A | 0.2
G19U G42C U48C U76A | 0.15
G19U U25C U41A | 0.14
G19U U26C A75U | 0.28
G19U U26C C37A U54A U69A | 0.08
G19U U26C U66C U67A | 0.12
G19U U26C U67C | 0.15
G19U U26C U72C | 0.4
G19U U31A A35G A77U | 0.24
G19U U31C A45G U54C U66C | 0.2
G19U U41A A47G A64U | 0.18
G19U U41A U49C U72C | 0.1
G19U U43A A45U A47C U72A | 0.08
G19U U49C A64G U78C | 0.14
G19U U58C U78G | 0.35
G19U U66C U76C | 0.21

Variant | self-cleavage
A20C A21C U31C U41A A47G C59A A75G | 0.04
A20C A21G A47G | 0.08
A20C A21G C40A | 0.38
A20C A47G A57G U80C | 0.06
A20C A57G U76C | 0.15
A20C C37U C39A A45G | 0.06
A20C C40A U80C | 0.1
A20C G22A C27A U80A | 0.15
A20C G24C C32U | 0.15
A20C U25C A56U A65G | 0.24
A20C U25C U67A U80A | 0.09
A20C U26A U41C U60A U67C | 0.07
A20C U26C A45U A56G U60C A64G | 0.07
A20C U26C C44U | 0.18
A20C U26C U31A C44U U48A G63A | 0.04
A20C U31C A65G | 0.41
A20C U41A A45G A64U | 0.24
A20C U41G U72A | 0.35
A20C U43C A64U U69A | 0.07
A20C U43C U74C | 0.07
A20C U48C U54C | 0.15
A20C U49A U51A A65G U80A | 0.04
A20G A21G A28C C50A A56G | 0.19
A20G A21G A35G A64G | 0.52

Variant | self-cleavage
A20G A21G A35G G42U U67A | 0.04
A20G A21G A35U A45G | 0.18
A20G A21G A56G U67C U69A | 0.14
A20G A21G C39U G42A U43C U69C | 0.07
A20G A21G G22U U66C | 0.44
A20G A21G G36A U78C | 0.3
A20G A21G U25A | 0.08
A20G A21G U26C U48C U58C U60A U78A | 0.03
A20G A21G U31C G63A U80A | 0.03
A20G A21G U31C U41C U67A U69A U78C | 0.36
A20G A21G U43A C44U A57G | 0.25
A20G A21G U72A | 0.29
A20G A21U U54A U60C A65G A77U | 0.05
A20G A21U U67C U80C | 0.28
A20G A21U U72C U78C | 0.3
A20G A28C A57U | 0.18
A20G A28C U31A G52A G63A U80C | 0.1
A20G A28C U49G U76A | 0.3
A20G A28C U54C A64U A65G | 0.36
A20G A28G A35G U72G | 0.94
A20G A28G A57G | 0.28
A20G A28G C29A U31G A47G | 0.03
A20G A28G C29U | 0.44

Reference: the RNAGym collection of RNA variant scans (doi:10.1093/nar/gkz1192)
